# Laboratory results taken from the supplement of paper PMC8728848.
# The list shows a part of the results.
# Columns and labels:
# Assay in all cases: glycan array binding signal (z-score within array); higher = stronger binding
# Details in all cases: glycan notation: IUPAC condensed, linker removed
# Gal(b1-4)Glc6S = target: Gal(b1-4)Glc6S
# Method in brief: (§1)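 Glycan array data came from 3228 arrays in the Consortium for Functional Glycomics database, and only arrays with an available protein sequence were kept. Glycan names were put into IUPAC-condensed notation, and columns mapping to the same glycan were averaged. The binding signal is a within-array Z-score, averaged across arrays of one protein sequence run at different concentrations or buffers and across linkers. A negative Z-score can be read as non-binding.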
# Gal(b1-4)GlcNAc = target: Gal(b1-4)GlcNAc
# Method in brief: as §1
# [1] = target: Gal(b1-4)GlcNAc(a1-6)Gal(b1-4)GlcNAc
# Method in brief: as §1
# Gal(b1-4)GlcNAc(b1-2)Man = target: Gal(b1-4)GlcNAc(b1-2)Man
# Method in brief: as §1
# [2] = target: Gal(b1-4)GlcNAc(b1-2)Man(a1-3)Man(b1-4)GlcNAc(b1-4)GlcNAc
# Method in brief: as §1
# [3] = target: Gal(b1-4)GlcNAc(b1-2)Man(a1-3)[Gal(b1-4)GlcNAc(b1-2)Man(a1-6)]Man(b1-4)GlcNAc(b1-4)GlcNAc
# Method in brief: as §1
# [4] = target: Gal(b1-4)GlcNAc(b1-2)Man(a1-3)[Gal(b1-4)GlcNAc(b1-2)Man(a1-6)]Man(b1-4)GlcNAc(b1-4)[Fuc(a1-6)]GlcNAc
# Method in brief: as §1
# [5] = target: Gal(b1-4)GlcNAc(b1-2)Man(a1-3)[Gal(b1-4)GlcNAc(b1-2)Man(a1-6)][Gal(b1-4)GlcNAc(b1-4)]Man(b1-4)GlcNAc(b1-4)[Fuc(a1-6)]GlcNAc
# Method in brief: as §1
# [6] = target: Gal(b1-4)GlcNAc(b1-2)Man(a1-3)[Gal(b1-4)GlcNAc(b1-2)Man(a1-6)][GlcNAc(b1-4)]Man(b1-4)GlcNAc(b1-4)[Fuc(a1-6)]GlcNAc
# Method in brief: as §1
# [7] = target: Gal(b1-4)GlcNAc(b1-2)Man(a1-3)[GlcNAc(b1-2)Man(a1-6)]Man(b1-4)GlcNAc(b1-4)GlcNAc
# Method in brief: as §1
# [8] = target: Gal(b1-4)GlcNAc(b1-2)Man(a1-3)[GlcNAc(b1-4)][Gal(b1-4)GlcNAc(b1-2)Man(a1-6)]Man(b1-4)GlcNAc(b1-4)GlcNAc
# Method in brief: as §1
# [9] = target: Gal(b1-4)GlcNAc(b1-2)Man(a1-3)[Man(a1-6)]Man(b1-4)GlcNAc(b1-4)GlcNAc
# Method in brief: as §1
# [10] = target: Gal(b1-4)GlcNAc(b1-2)Man(a1-6)Man(b1-4)GlcNAc(b1-4)GlcNAc
# Method in brief: as §1
# [11] = target: Gal(b1-4)GlcNAc(b1-2)Man(a1-6)[GlcNAc(b1-2)Man(a1-3)]Man(b1-4)GlcNAc(b1-4)GlcNAc
# Method in brief: as §1
# [12] = target: Gal(b1-4)GlcNAc(b1-2)Man(a1-6)[Man(a1-3)]Man(b1-4)GlcNAc(b1-4)GlcNAc
# Method in brief: as §1
# [13] = target: Gal(b1-4)GlcNAc(b1-2)[Gal(b1-4)GlcNAc(b1-4)]Man(a1-3)[Gal(b1-4)GlcNAc(b1-2)Man(a1-6)]Man(b1-4)GlcNAc(b1-4)GlcNAc
# Method in brief: as §1
# [14] = target: Gal(b1-4)GlcNAc(b1-2)[Gal(b1-4)GlcNAc(b1-4)]Man(a1-3)[Gal(b1-4)GlcNAc(b1-2)[Gal(b1-4)GlcNAc(b1-6)]Man(a1-6)]Man(b1-4)GlcNAc(b1-4)GlcNAc
# Method in brief: as §1
# [15] = target: Gal(b1-4)GlcNAc(b1-2)[Gal(b1-4)GlcNAc(b1-4)]Man(a1-3)[GlcNAc(b1-4)][Gal(b1-4)GlcNAc(b1-2)Man(a1-6)]Man(b1-4)GlcNAc(b1-4)GlcNAc
# Method in brief: as §1
# [16] = target: Gal(b1-4)GlcNAc(b1-2)[Gal(b1-4)GlcNAc(b1-4)]Man(a1-3)[GlcNAc(b1-4)][Gal(b1-4)GlcNAc(b1-2)[Gal(b1-4)GlcNAc(b1-6)]Man(a1-6)]Man(b1-4)GlcNAc(b1-4)GlcNAc
# Method in brief: as §1
# [17] = target: Gal(b1-4)GlcNAc(b1-2)[Gal(b1-4)GlcNAc(b1-6)]Man(a1-6)[Gal(b1-4)GlcNAc(b1-2)Man(a1-3)]Man(b1-4)GlcNAc(b1-4)GlcNAc
# Method in brief: as §1
# [18] = target: Gal(b1-4)GlcNAc(b1-2)[Gal(b1-4)GlcNAc(b1-6)]Man(a1-6)[Gal(b1-4)GlcNAc(b1-2)Man(a1-3)]Man(b1-4)GlcNAc(b1-4)[Fuc(a1-6)]GlcNAc
# Method in brief: as §1
# [19] = target: Gal(b1-4)GlcNAc(b1-2)[Gal(b1-4)GlcNAc(b1-6)]Man(a1-6)[GlcNAc(b1-4)][Gal(b1-4)GlcNAc(b1-2)Man(a1-3)]Man(b1-4)GlcNAc(b1-4)GlcNAc
# Method in brief: as §1
# [20] = target: Gal(b1-4)GlcNAc(b1-2)[Gal(b1-4)GlcNAc(b1-6)]Man(a1-6)[GlcNAc(b1-4)][Gal(b1-4)GlcNAc(b1-2)[Gal(b1-4)GlcNAc(b1-4)]Man(a1-3)]Man(b1-4)GlcNAc(b1-4)[Fuc(a1-6)]GlcNAc
# Method in brief: as §1
# [21] = target: Gal(b1-4)GlcNAc(b1-3)Gal(b1-3)GalNAc
# Method in brief: as §1
# [22] = target: Gal(b1-4)GlcNAc(b1-3)Gal(b1-3)GlcNAc
# Method in brief: as §1
# [23] = target: Gal(b1-4)GlcNAc(b1-3)Gal(b1-4)Glc
# Method in brief: as §1
# [24] = target: Gal(b1-4)GlcNAc(b1-3)Gal(b1-4)GlcNAc
# Method in brief: as §1
# [25] = target: Gal(b1-4)GlcNAc(b1-3)Gal(b1-4)GlcNAc(b1-2)Man(a1-3)[Gal(b1-4)GlcNAc(b1-3)Gal(b1-4)GlcNAc(b1-2)Man(a1-6)]Man(b1-4)GlcNAc(b1-4)GlcNAc
# Method in brief: as §1
# [26] = target: Gal(b1-4)GlcNAc(b1-3)Gal(b1-4)GlcNAc(b1-2)Man(a1-3)[Gal(b1-4)GlcNAc(b1-3)Gal(b1-4)GlcNAc(b1-2)Man(a1-6)]Man(b1-4)GlcNAc(b1-4)[Fuc(a1-6)]GlcNAc
# Method in brief: as §1
# [27] = target: Gal(b1-4)GlcNAc(b1-3)Gal(b1-4)GlcNAc(b1-2)[Gal(b1-4)GlcNAc(b1-3)Gal(b1-4)GlcNAc(b1-6)]Man(a1-6)[Gal(b1-4)GlcNAc(b1-3)Gal(b1-4)GlcNAc(b1-2)Man(a1-3)]Man(b1-4)GlcNAc(b1-4)GlcNAc
# Method in brief: as §1
binder,measurement,setting,value
Pbx2 (Cryptococcus neoformans) (protein) AVSPLPSSTELVFYSQKRRRRRICSTATGSLSTPDPTRMTSDPYKRVGMRFSSVPRLLITFLSLLLLVSAAPPCVRFADYDSINQMFIDGGPGTKVLLCPNRLYRLSGPIIFTAADQEIATYGYPTGSERAVLRVEGRNTATAIQGDCRRCARVSVKNLVVDGNRKKLGRMRDFQLATGLVVLGGNEGQSIQNSWIKNPRGFTAIHIREGDKLQCSGARVEKNEIGPVGEEYDPEKDGDDPEMSPLGRPLADGVSIACRDSFIRDNTFRDNTDAAIVVYCSPGTLIHANHIFAQSLSAMAGILMVDSTPFNGDYTGTVVRSNIIDAVSRTIRVGIGIGPTVWSDDTETILTGGSVIGNGLKGRYMGYGIAAAGLKQWTIKDNWDEAKHEGRKSARCFDEPVNPDPIGLLYNRPTMEDCTVQSGFADHDFQYLVCIDGLYDKTNPPKHDPAPLAHDPSPTNAQEDNTVQQDGGDSKSKSIEQPREASDIEAEPSVEKMFSTGSEMMDDVLEHSHQRMHEVIDHLSRRIDILGAASAGKGSGDSKISEVLDPAMSSHLEKLQRKIEHLEFSLRSQIETAIQLRSAIQGWDQEMALVTDWEYDILLDVRHKLELSSYPHDQPLDPRLMRGQSYLNNEAVLVDDHSHPSLEGENLRAMSDRARLNANEEA,glycan array binding signal (z-score),Gal(b1-4)Glc6S,-0.292
same,glycan array binding signal (z-score),Gal(b1-4)GlcNAc,-0.452
same,glycan array binding signal (z-score),[1],-0.563
same,glycan array binding signal (z-score),Gal(b1-4)GlcNAc(b1-2)Man,1.2
same,glycan array binding signal (z-score),[2],0.096
same,glycan array binding signal (z-score),[3],-0.237
same,glycan array binding signal (z-score),[4],-0.371
same,glycan array binding signal (z-score),[5],-0.068
same,glycan array binding signal (z-score),[6],-0.027
same,glycan array binding signal (z-score),[7],-0.415
same,glycan array binding signal (z-score),[8],0.266
same,glycan array binding signal (z-score),[9],0.326
same,glycan array binding signal (z-score),[10],-0.133
same,glycan array binding signal (z-score),[11],-0.101
same,glycan array binding signal (z-score),[12],0.603
same,glycan array binding signal (z-score),[13],-0.482
same,glycan array binding signal (z-score),[14],-0.08
same,glycan array binding signal (z-score),[15],-0.066
same,glycan array binding signal (z-score),[16],-0.08
same,glycan array binding signal (z-score),[17],-0.097
same,glycan array binding signal (z-score),[18],-0.242
same,glycan array binding signal (z-score),[19],0.357
same,glycan array binding signal (z-score),[20],-0.162
same,glycan array binding signal (z-score),[21],-0.388
same,glycan array binding signal (z-score),[22],-0.114
same,glycan array binding signal (z-score),[23],-0.237
same,glycan array binding signal (z-score),[24],-0.439
same,glycan array binding signal (z-score),[25],4.98
same,glycan array binding signal (z-score),[26],-0.298
same,glycan array binding signal (z-score),[27],1.59
